# Reference: the RNAGym collection of RNA variant scans (doi:10.7554/elife.90254)
# Read counts are not given, so values of variants with three or more changes are uncertain.
# B1: LINE1-mini (parent)
# chain: GGCAGAGCUCAACACAGCGUGGCAAAGUGGCUGUGGCUAGACUGCC
# Variants of: B1
# Assay: self-cleavage, relative activity (ratio to wild type); higher = more cleavage; in vitro, sequencing; the parent is a self-cleaving ribozyme
row,Variant,self-cleavage
1,G1U G30U G36U C37A,0.02
2,G1U G33A A39U,0.05
3,G1U G33A U43C,0
4,G1U G33C C45A,0.03
5,G1U G33C G40U,0.02
6,G1U G33U G40C,0.01
7,G1U G40C C42U,0.05
8,G1U G40U C42A,0.08
9,G1U G44A C46G,0.08
10,G1U G44U C45G,0.06
11,G1U U9A A24U G27C U28C G30A,0.01
12,G1U U9A C10G A26G U28G G40A,0.01
13,G1U U9A C10G C13A,0.01
14,G1U U9A G21U,0.06
15,G1U U9A G27C C45A,0.02
16,G1U U9A G27U U38C,0.01
17,G1U U9A G30A C37G A39C,0.05
18,G1U U9A G33A,0
19,G1U U9A G36U,0.01
20,G1U U9C A14U C15A A16U C18A C45A,0.01
21,G1U U9C A14U G22A G40C,0.02
22,G1U U9C C10A C31G G40A,0.01
23,G1U U9C G27U G29A C37G G44C,0.01
24,G1U U9C G29C G40A,0.01

row,Variant,self-cleavage
1,G1U U9C G36C,0
2,G1U U9G A11G C15A,0.01
3,G1U U9G C15U,0.04
4,G1U U9G C18G C31A,0.03
5,G1U U9G G33U U38C,0.01
6,G1U U9G U20A A25G A39G U43C C45A,0.01
7,G1U U20A C23U,0.3
8,G1U U20A G27C C37U,0.01
9,G1U U20A G33U,0.06
10,G1U U20A G40A,0.03
11,G1U U20A U28G G36C,0.03
12,G1U U20C A39C,0.01
13,G1U U20C C23A G44A,0.09
14,G1U U20C G22A U43A,0.03
15,G1U U20C G29A G33C,0.01
16,G1U U20G C23A,0.18
17,G1U U20G C23U G33U A41G,0.02
18,G1U U20G C42U C46G,0.14
19,G1U U20G G21U C23U G33U U43A,0
20,G1U U20G G36U,0.01
21,G1U U28C G33C U34C,0
22,G1U U28C G40C C45U,0
23,G1U U28G C45A,0.23
24,G1U U28G G36C,0.04

row,Variant,self-cleavage
1,G1U U32C G33C G35C,0.05
2,G1U U32C U38G,0.09
3,G1U U32G C42U,0.05
4,G1U U32G G40A,0.03
5,G1U U32G U34C G44A,0.02
6,G1U U34A G35A,0
7,G1U U34C G36U,0.07
8,G1U U34G C42G,0.03
9,G1U U38G A39C C45A,0.04
10,G1U U43C G44C,0.04
11,G2A A4C A6G G40U A41U G44A,0.1
12,G2A A4C A14C G35U,0.42
13,G2A A4C A26U U28G C46A,0.08
14,G2A A4C C31G,0.09
15,G2A A4C G5U C13A G21C G29A,0.12
16,G2A A4C G22C U34C,0.22
17,G2A A4C G35U,1.09
18,G2A A4C G44A,0.13
19,G2A A4C U9C G29A,0.02
20,G2A A4C U38A G44U,0.15
21,G2A A4G A6G U9A C15G,0.04
22,G2A A4G A6G U32A G36C,0.09
23,G2A A4G A25C C31A U32C,0.06
24,G2A A4G C8U,0.06

row,Variant,self-cleavage
1,G2A A4G G17A A26C U34G,0.11
2,G2A A4G G21U C23A U38A,0.08
3,G2A A4G G27A G29U G33C G44U C45A,0.11
4,G2A A4U C8A C18A G27U U32G,0.21
5,G2A A4U C8G C23U G27C U32G G36C,0.06
6,G2A A4U C8U C10G C15A,0.04
7,G2A A4U C13G G17C C18U,0.18
8,G2A A4U C15U G30A U32A,0.11
9,G2A A4U C18U G35U G40A,0.13
10,G2A A4U G5A C8G C18A G44A,0.03
11,G2A A4U G5U A26G U28G G35U,0.25
12,G2A A4U G19A C31U C46A,0.08
13,G2A A4U G19U C46A,0.1
14,G2A A4U G21A U28A A39C,0.45
15,G2A A4U G22C,0.29
16,G2A A4U U9A C10U C23G C31U,0.14
17,G2A A6C A11U U43C,0.04
18,G2A A6C A12G C13A C37U,0.06
19,G2A A6C C8A C13U G27A U32A,0.6
20,G2A A6C G21U G27A,1.23
21,G2A A6C G21U G35U G44U,0.09
22,G2A A6C G29A C42A,0.19
23,G2A A6C U9G C46A,0.06
24,G2A A6C U28G G29U C31U,0.03

row,Variant,self-cleavage
1,G2A A6G A11G G19U G40C C45A,0.01
2,G2A A6G A11U U43C G44A,0.02
3,G2A A6G A12U G21C A41G C42U,0.1
4,G2A A6G A16G G21U C37A,0.06
5,G2A A6G C10A,0.01
6,G2A A6G C10G A41C C42G,0.02
7,G2A A6G G33U,0.07
8,G2A A6G G40A,0.17
9,G2A A6G U9A G17A,0.07
10,G2A A6G U9G C10U A11C A16G,0.02
11,G2A A6G U20A C42G C45G,0
12,G2A A6G U32G C45G,0.14
13,G2A A6G U34A U38A,0.04
14,G2A A6U A14C,0.06
15,G2A A6U C8U C23U,0.38
16,G2A A6U C13G A16C G27U G36C A39C,0.5
17,G2A A6U C13U A24U U34C G40A,0.2
18,G2A A6U C23U,0.33
19,G2A A6U G7A,0.3
20,G2A A6U G17A G27C C42G,0.09
21,G2A A6U G17C,0.32
22,G2A A6U G17C C31A A41U,0.13
23,G2A A6U G22A C31A,0.87
24,G2A A11C A16U,0.02

row,Variant,self-cleavage
1,G2A A11C A39U,0.04
2,G2A A11C C13A A14C U38C,0.03
3,G2A A11C C18A U38C,0.02
4,G2A A11C U20C G29U G33A A39C,0.07
5,G2A A11G C37U U43C,0.04
6,G2A A11G G44U,0.05
7,G2A A11G U34A A39G U43C,0.02
8,G2A A11U A12C U32A G33U,0
9,G2A A11U A16C G22A U43G,0.03
10,G2A A11U A24C G33U G36C,0.03
11,G2A A11U C15A G30A C31A U34G,0.01
12,G2A A11U C18U U34G,0.05
13,G2A A11U G21U,0.17
14,G2A A11U G21U C37U,0.01
15,G2A A12C C18U U32G,0.05
16,G2A A12C C37A U38A G40A,0.03
17,G2A A12C G27C G29U,0.02
18,G2A A12C U20G,0.02
19,G2A A12G A24G U28C,0.05
20,G2A A12G C13U G33U A41C,0.01
21,G2A A12G C15A C46A,0.16
22,G2A A12G G22A G33U,0.06
23,G2A A12G G33C U34C,0.14
24,G2A A12G G35A C37A,0.17

row,Variant,self-cleavage
1,G2A A12U A16C C18U U28C U34C,0.19
2,G2A A12U C13G U38G C42U,0.12
3,G2A A12U C13U A16G G17U C23U C37U,0.67
4,G2A A12U C18A G19U G35A C46A,0.08
5,G2A A12U C23U,0.65
6,G2A A12U G19C A24U,0.13
7,G2A A14C C31G,0.06
8,G2A A14C C31U,0.05
9,G2A A14C C37U,0.09
10,G2A A14C G21A G33C,0
11,G2A A14C U32C,0.14
12,G2A A14G A16C C23U C31G G44C,0.1
13,G2A A14G G17A A25C A26G C31G C42U G44C,0.05
14,G2A A14G G21A C23A U34G,0.1
15,G2A A14U A16U C37U,0.08
16,G2A A14U A16U G44U,0.03
17,G2A A14U G19C G40A,0.11
18,G2A A14U G33A,0.17
19,G2A A14U U20A A26C C46A,0.08
20,G2A A14U U20C,0.26
21,G2A A16C C18U G27U G40C,0.12
22,G2A A16C G21A U28G,0.07
23,G2A A16C G33C,0.04
